{"source": "PubChem BioAssay AID1030", "about": "(National Center for Advancing Translational Sciences (NCATS), 2008)", "note": "Screen size: about 220,000 compounds; about 16,000 (7.3%) were called active. Inconclusive results, whose numbers are uncertain, are shown with a selection of clear calls. Calls follow the shape of the dose curve; as a rule, active = well fitted inhibition curve with a large enough effect (not every such curve was filed as active); inconclusive = small, poorly fitted or top-dose-only effect, or another doubt; inactive = no such curve, though single readings can be large or run the other way. No potency is given beside an inconclusive call; the fits are too rough. Potency is read from the fitted curve at half-maximal effect; tags tell the direction and shape of the fitted curve.", "data": [{"target": "Aldehyde dehydrogenase 1A1 (Homo sapiens) (UniProt P00352)", "sequence (P00352 whole entry, looked up)": "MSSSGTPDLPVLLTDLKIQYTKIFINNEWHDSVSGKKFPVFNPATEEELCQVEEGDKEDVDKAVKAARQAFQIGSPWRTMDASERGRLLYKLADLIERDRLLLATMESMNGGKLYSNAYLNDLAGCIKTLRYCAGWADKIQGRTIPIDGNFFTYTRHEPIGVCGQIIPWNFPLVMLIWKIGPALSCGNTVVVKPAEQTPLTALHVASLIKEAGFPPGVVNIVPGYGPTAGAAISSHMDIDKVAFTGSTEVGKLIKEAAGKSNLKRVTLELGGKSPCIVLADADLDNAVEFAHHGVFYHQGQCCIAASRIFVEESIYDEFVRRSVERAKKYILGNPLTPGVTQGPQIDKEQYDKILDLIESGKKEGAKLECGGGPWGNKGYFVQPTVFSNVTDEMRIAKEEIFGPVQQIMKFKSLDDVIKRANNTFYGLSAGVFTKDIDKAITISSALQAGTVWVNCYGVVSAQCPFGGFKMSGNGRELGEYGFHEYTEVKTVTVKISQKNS", "test": "qHTS Assay for Inhibitors of Aldehyde Dehydrogenase 1 (ALDH1A1);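 as to activity, negative = inhibition: plate controls were no enzyme wells and a reference inhibitor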", "conditions": "Purified ALDH1A1, NADH fluorescence, propionaldehyde substrate; series mostly up to 75.3 µM", "values": [{"smiles": "Cc1ccc(SCCC(=O)N2CCOCC2)cc1", "Potency": "inactive"}, {"smiles": "Cc1ccc(NC(=O)CSC2=C(C#N)C(c3ccc4c(c3)OCO4)C3=C(CCCC3=O)N2)c(C)c1", "note": "(stereo not drawn)", "Potency": "active: 14.1 µM"}, {"smiles": "Cc1cccc(C(=O)NNC(=O)/C=C/C(=O)O)c1", "Potency": "inconclusive [inhibitor, single point]"}, {"smiles": "O=C(C[n+]1ccc(CCSc2ccc(F)cc2)cc1)c1ccccc1", "Potency": "inconclusive [inhibitor, full curve]"}, {"smiles": "Cc1ccc(C(=O)Nc2nc(=O)n(C(=O)c3ccccc3Cl)s2)cc1", "Potency": "inconclusive [inhibitor, single point]"}, {"smiles": "COc1ccc(NC(=O)Cc2ccc(Cl)cc2Cl)cn1", "Potency": "inactive"}, {"smiles": "CC(=NCC(=O)O)c1ccccc1", "activity, negative = inhibition": "inactive: 5.37% [at 13.5 µM]"}, {"smiles": "C(#Cc1ccccc1)C[N+]1(CC#Cc2cccc3ccccc23)CCOCC1", "Potency": "inconclusive [inhibitor, single point]"}, {"smiles": "O=C(Nc1ccc(Br)cc1)C1CC=CCC1C(=O)OCC1CCCO1", "note": "(stereo not drawn)", "Potency": "inactive"}, {"smiles": "CCOC(=O)/C(=N\\Nc1ccccc1Cl)N1CCN(C)CC1", "Potency": "inactive"}, {"smiles": "O=C(N/N=C/c1sc(N2CCOCC2)nc1-c1ccccc1)c1ccccc1O", "Potency": "inconclusive [inhibitor, single point]"}, {"smiles": "Cc1ccc(S(=O)(=O)c2cc3cc(Br)ccc3oc2=O)cc1", "Potency": "inactive"}, {"smiles": "O=S(=O)(Nc1cccnc1)c1cccs1", "Potency": "inactive"}, {"smiles": "O=C(NC(=S)Nc1cccc(Cl)c1N1CCCCC1)c1ccc2c(c1)OCCO2", "Potency": "inconclusive [inhibitor, single point]"}, {"smiles": "CCCCCc1nnc(NC(=O)Cn2cnc3ccccc3c2=O)s1", "Potency": "inactive"}, {"smiles": "Cc1cc(C)c(NC(=O)CSc2ccc(-c3cccnc3)nn2)c(C)c1", "Potency": "inconclusive [inhibitor, single point]"}, {"smiles": "CCC(=O)N1c2ccccc2NC2=C(C(=O)CCC2)C1c1ccco1", "note": "(stereo not drawn)", "Potency": "inconclusive [inhibitor, single point]"}, {"smiles": "Cc1ccc(/C=N\\NC(=O)Cc2cccn2C)o1", "Potency": "inconclusive [inhibitor, single point]"}, {"smiles": "Cc1nc(CS(=O)(=O)c2ccccc2)cc(Sc2ccc(Cl)cc2Cl)n1", "Potency": "inconclusive [inhibitor, single point]"}, {"smiles": "Cc1ccc(C(=O)N2CCN(c3ccc(NC(=S)NC(=O)c4cccs4)cc3)CC2)cc1", "Potency": "active: 14.1 µM"}, {"smiles": "CCOC(=O)C1Sc2[nH]c(=O)sc2C(c2ccc(Cl)cc2)C1C(=O)OCC", "note": "(stereo not drawn)", "Potency": "active: 11.2 µM"}, {"smiles": "CNC(=O)[C@H](C)[C@H]1C[C@]1(C)[C@H](NC(=O)OCc1ccccc1)c1ccccc1", "Potency": "active: 7.94 µM"}, {"smiles": "COc1ccc(NC(=S)Nc2ccc(S(N)(=O)=O)cc2)c(OC)c1", "Potency": "inconclusive [inhibitor, single point]"}, {"smiles": "Cc1ccc2oc(-c3ccc(NC(=O)c4ccncc4)cc3O)nc2c1", "Potency": "inactive"}, {"smiles": "CCOC(=O)c1nn(-c2ccc(F)cc2)c(-c2ccccc2)c1C(=O)c1ccccc1", "Potency": "active: 11.2 µM"}, {"smiles": "CC(C)c1nnc(NC(=O)CCC(=O)NCc2ccc3c(c2)OCO3)s1", "Potency": "inconclusive [inhibitor, partial curve]"}, {"smiles": "CN(C)c1ccc(-c2ccc3ncnc(NCc4ccccc4)c3c2)cc1", "Potency": "inconclusive [inhibitor, single point]"}, {"smiles": "CCNc1ccc(S(=O)(=O)N(C)C)cc1NCC(=O)Nc1ccc(F)c(Cl)c1", "Potency": "active: 25.1 µM"}, {"smiles": "NS(=O)(=O)c1cccc(NC(=S)NC(=O)c2cccc([N+](=O)[O-])c2)c1", "Potency": "inconclusive [inhibitor, single point]"}, {"smiles": "CSc1nc(C)cc(/C=C\\c2ccccc2)c1C#N", "Potency": "inconclusive [inhibitor, partial curve]"}, {"smiles": "FC(F)(F)c1cccc(-c2ccn3ncnc3n2)c1", "Potency": "inconclusive [inhibitor, single point]"}, {"smiles": "O=C(COC(=O)/C=C/c1ccc2c(c1)OCO2)Nc1ccc(S(=O)(=O)N2CCCC2)cc1", "Potency": "inconclusive [inhibitor, partial curve]"}, {"smiles": "COc1ccccc1NC(=S)N(CCc1nc2cc(C)c(C)cc2[nH]1)Cc1cccnc1", "Potency": "inconclusive [inhibitor, single point]"}, {"smiles": "COc1cc2c(=O)n(Cc3ccccc3)c(=O)n(CC(=O)NCC3CCCO3)c2cc1OC", "note": "(stereo not drawn)", "Potency": "inconclusive [inhibitor, partial curve]"}, {"smiles": "CCN(CC)C(=O)c1ccc(NS(=O)(=O)c2ccccc2)cc1", "Potency": "inactive"}, {"smiles": "COc1ccc(NC(=O)c2c(OC)cccc2OC)c(OC)c1", "Potency": "inactive"}, {"smiles": "CCCN1C(=O)c2ccc(C(=O)Nc3cc(C)on3)cc2C1=O", "Potency": "active: 0.398 µM"}, {"smiles": "Cc1nc2ccccn2c1C(=O)NN=C1CCCC1", "Potency": "inconclusive [inhibitor, single point]"}, {"smiles": "CCOC(=O)c1ccccc1NC(=O)CSc1nc2ccccc2o1", "Potency": "inconclusive [inhibitor, single point]"}, {"smiles": "CCN1CCN(CCCNC(=O)C2c3ccccc3C(=O)N(C)C2c2ccc(OC)cc2)CC1", "note": "(stereo not drawn)", "Potency": "inactive"}, {"smiles": "CC(=O)Nc1ccc(-c2cc(-c3ccc(NC(C)=O)cc3)nc(-c3ccccc3)n2)cc1", "Potency": "inconclusive [inhibitor, single point]"}, {"smiles": "C/C(=N\\Nc1ccc(S(N)(=O)=O)cc1[N+](=O)[O-])c1ccc2c(c1)OCO2", "Potency": "inactive"}, {"smiles": "CCOc1ccc(N=C(NC#N)SCC(=O)NC2CC2)cc1", "Potency": "inactive"}, {"smiles": "O=c1c(Cl)c(NCc2ccco2)cnn1C12CC3CC(CC(C3)C1)C2", "Potency": "inconclusive [inhibitor, single point]"}, {"smiles": "C[C@@H]1CCC2C(C)(C)C3CC21CC[C@@]3(C)O", "note": "(stereo partly drawn)", "Potency": "inactive"}, {"smiles": "O=C(CN1CCN(C/C=C/c2ccccc2)CC1)Nc1ccccc1C(=O)NC1CC1", "Potency": "inconclusive [inhibitor, single point]"}, {"smiles": "O=C(CCCSc1nc2ccccc2s1)NC1=NCCS1", "Potency": "inconclusive [inhibitor, single point]"}, {"smiles": "COc1ccc(N2CCN(Cc3nc4cc(Cl)ccc4c(=O)[nH]3)CC2)cc1", "Potency": "inactive"}]}]}
